Assay results taken from patent publication US20230211007A1 (published 2023).

T1: VEGF-165 (UniProt P15692-4 27-191)
T1 construct: Bought reagent
T1 sequence (looked up): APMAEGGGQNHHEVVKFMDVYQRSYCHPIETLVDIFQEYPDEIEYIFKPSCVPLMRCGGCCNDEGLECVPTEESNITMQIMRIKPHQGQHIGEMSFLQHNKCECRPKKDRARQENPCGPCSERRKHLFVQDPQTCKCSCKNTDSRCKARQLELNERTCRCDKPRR

B1: 166ADC (anti-VEGF 166C mutant coupled to DC, polypeptide-linker) (other)
heavy: EVQLVESGGGLVQPGGSLRLSCAASGYTFTNYGMNWVRQAPGKGLEWVGWINTYTGEPTYAADFKRRFTFSLDTSKSTAYLQMNSLRAEDTAVYYCAKYPHYYGSSHWYFDVWGQGTLVTVSSASTKGPSVFPLAPSSKSTSGGTAALGCLVKDYFPEPVTVSWNSGALTSGVHTFPAVLQSSGLSLSSVVTVPSSSLGTQTYICNVNHKPSNTKVDKKV[human IgG1 Fc not written out]
light: DIQMTQSPSSLSASVGDRVTITCSASQDISNYLNWYQQKPGKAPKVLIYFTSSLHSGVPSRFSGSGSGTDFTLTISSLQPEDFATYYCQQYSTVPWTFGQGTKVEIKRTVAAPSVFIFPPSDEQLKSGTASVVCLLNNFYPREAKVQWKVDNALQSGNSQESVTECDSKDSTYSLSSTLTLSKADYEKHKVYACEVTHQGLSSPVTKSFNRGEC
peptide: QKYQPLDEKDKTLYDQFMLQQG
modifications: Lys(Ac) at 2 and 9; C-terminal amide (CONH2); the underlined Lys (printed 'Lu', position 11) linked to the linker formamide-PEG4-NHS; Cys at Kabat position 166 coupled to DC (polypeptide-linker)
notes: Antibody-polypeptide conjugate: Ang2-neutralising peptide joined through a linker to the light chain cysteine; also called conjugate; antibody-polypeptide conjugate
B2: 124ADC (anti-VEGF 124C mutant coupled to DC, polypeptide-linker) (other)
heavy: EVQLVESGGGLVQPGGSLRLSCAASGYTFTNYGMNWVRQAPGKGLEWVGWINTYTGEPTYAADFKRRFTFSLDTSKSTAYLQMNSLRAEDTAVYYCAKYPHYYGSSHWYFDVWGQGTLVTVSSASTKGPSVFPLAPSSKSTSGGTAALGCLVKDYFPEPVTVSWNSGALTSGVHTFPAVLQSSGLSLSSVVTVPSSSLGTQTYICNVNHKPSNTKVDKKV[human IgG1 Fc not written out]
light: DIQMTQSPSSLSASVGDRVTITCSASQDISNYLNWYQQKPGKAPKVLIYFTSSLHSGVPSRFSGSGSGTDFTLTISSLQPEDFATYYCQQYSTVPWTFGQGTKVEIKRTVAAPSVFIFPPSDECLKSGTASVVCLLNNFYPREAKVQWKVDNALQSGNSQESVTEQDSKDSTYSLSSTLTLSKADYEKHKVYACEVTHQGLSSPVTKSFNRGEC
peptide: QKYQPLDEKDKTLYDQFMLQQG
modifications: Lys(Ac) at 2 and 9; C-terminal amide (CONH2); the underlined Lys (printed 'Lu', position 11) linked to the linker formamide-PEG4-NHS; Cys at Kabat position 124 coupled to DC (polypeptide-linker)
notes: Antibody-polypeptide conjugate; also called conjugate; antibody-polypeptide conjugate

Molecular target: T1, VEGF-165
Test: BLI (Octet), conjugate on Pro A probe, VEGF-165 50-200 nM in solution

Binder	Kd
B1	1.96 nM
B2	0.87 nM
